The target of experiment [1] is endogenous MDM2 (human (endogenous in SHEP)) (UniProt Q00987). Put plainly: proximity ligation; DuoLink PLA on SHEP cells fixed in 4% PFA and permeabilised; pairs of primary antibodies (anti-GFP or anti-Flag for the TrkC constructs; pan-importin, anti-Hey1 or anti-MDM2 for endogenous proteins); red spots counted per cell.
For experiment [2], the target named is GFP-tagged TrkC killer-fragment (TrkC-KF-GFP) (UniProt Q16288). The description is as above.
The target is the same in experiment [3]. Description: co-IP; transfected HEK293T cells lysed in 50 mM HEPES pH 7.6, 125 mM NaCl, 5 mM EDTA, 0.1% NP-40; immunoprecipitation with anti-GFP and protein G sepharose; western blot with anti-Flag.

Amino acid sequences for entries named in this document (tags omitted). Residues count along the entry.
UniProt Q00987: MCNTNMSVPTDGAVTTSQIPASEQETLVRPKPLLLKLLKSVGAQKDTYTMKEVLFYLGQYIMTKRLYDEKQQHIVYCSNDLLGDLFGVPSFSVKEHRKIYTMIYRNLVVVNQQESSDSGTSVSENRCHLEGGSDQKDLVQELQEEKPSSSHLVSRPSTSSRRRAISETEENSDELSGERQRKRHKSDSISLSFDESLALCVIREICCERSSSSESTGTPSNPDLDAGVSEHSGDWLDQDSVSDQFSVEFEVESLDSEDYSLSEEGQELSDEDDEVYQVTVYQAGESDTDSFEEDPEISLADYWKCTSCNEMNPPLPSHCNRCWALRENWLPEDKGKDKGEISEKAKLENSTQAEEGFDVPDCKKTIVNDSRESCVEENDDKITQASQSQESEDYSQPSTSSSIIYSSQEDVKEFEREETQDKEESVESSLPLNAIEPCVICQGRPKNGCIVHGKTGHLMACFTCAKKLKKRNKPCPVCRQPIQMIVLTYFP
UniProt Q16288, residues 496-641: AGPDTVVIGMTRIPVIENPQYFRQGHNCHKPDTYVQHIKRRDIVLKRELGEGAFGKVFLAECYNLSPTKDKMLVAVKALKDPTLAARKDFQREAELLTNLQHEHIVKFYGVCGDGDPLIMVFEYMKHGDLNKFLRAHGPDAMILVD

No constants are given. Whether binding was seen depends on the method and setting. In cells and extracts the contact can be indirect. Some results given as binding are weak or reduced against the parent protein; the word gives no strength. For some of these results: Tags and fused reporters may be left off the sequences shown.

B1: endogenous Hey1 (protein, UniProt Q9Y5J3 1-304)
chain: MKRAHPEYSSSDSELDETIEVEKESADENGNLSSALGSMSPTTSSQILARKRRRGIIEKRRRDRINNSLSELRRLVPSAFEKQGSAKLEKAEILQMTVDHLKMLHTAGGKGYFDAHALAMDYRSLGFRECLAEVARYLSIIEGLDASDPLRVRLVSHLNNYASQREAASGAHAGLGHIPWGTVFGHHPHIAHPLLLPQNGHGNAGTTASPTEPHHQGRLGSAHPEAPALRAPPSGSLGPVLPVVTSASKLSPPLLSSVASLSAFPFSFGSFHLLSPNALSPSAPTQAANLGKPYRPWGTEIGAF
As for B1, the binding result is reported as “no binding” in experiment [1] and “binds” in experiment [2].

B2: HeyL-Flag (protein, UniProt Q9DBX7 1-326)
chain: MKRPRAPSGSDGESDGPIDVGQENDLSQMARPLTTPSPSQMQARKKRRGIIEKRRRDRINSSLSELRRLVPTAFEKQGSSKLEKAEVLQMTVDHLKMLHASGGTGFFDARALAVDFRSIGFRECLTEVIRYLGVLEGPSSHADPVRIRLLSHLKSYAAEMEPSPTTTSALAFPVWPWSFLHSCPGLPSLNSQLAILGRVPGPVLPSISSPPYPISALRSAPVHRPAGTIPPTRRNLLPSRGVTSTQRAHLPERPAAPPPTALDARAARSIVPIPPCSPTTAPGAGKSDDNVSGSISSPCPSGPTGRPAGAVFYHSWVSEITEIGAF
For B2, the binding result in experiment [3] is recorded as “no binding”.

B3: Hey1-Flag (protein, UniProt Q9WV93 1-299)
chain: MKRAHPDYSSSDSELDETIEVEKESADENGNLSSALCSMSPTTSSQVLARKRRRGIIEKRRRDRINNSLSELRRLVPSAFEKQGSAKLEKAEILQMTVDHLKMLHTAGGKGYFDAHALAMDYRSLGFRECLAEVARYLSIIEGLDASDPLLVRLVSHLNNYASQREAASGAHGGLGHIPWGSAFGHHPHIAHPLLLPQNGHGNAGTAASPTEPHHQGRLASAHPEAPALRAPPSGGLGPVLPVVTSASKLSPPLLSSVASLSAFPFSFSSFHLLSPSTPTQAANLGKPYRPWGTEIGAF
Take B3: the binding entry in experiment [3] was “binds”.

(Values after paper PMC5965893.)
